Laboratory results taken from PubChem BioAssay AID2546 (National Center for Advancing Translational Sciences (NCATS), 2010).
Several values for one entry are separate records, joined by “and”; a condition that tells them apart may be missing. Identical values can stand only once. Hit rate of the full screen: of about 310,000 compounds, about 11,000 (3.5%) were called active. The shares of active, inactive and inconclusive entries below differ from those in the screen. The call rests on the fitted dose curve; in most records, active means well fitted inhibition curve with a large enough effect; inconclusive means small, poorly fitted or top-dose-only effect, or effect the other way; inactive means flat fitted curve, though single readings scatter. Where the call is inconclusive, the potency comes from a doubtful curve fit.

Experiment: VP16 counterscreen qHTS for inhibitors of ROR gamma transcriptional activity;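 further: Gal4-VP16 expression switched on by copper sulfate through the metallothionein promoter; nearly all actives have a fitted effect of over 50% in size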
Details: Drosophila S2 Gal4-VP16 UAS-luciferase, luminescence, 20 h; series mostly up to 53.6 µM; activity, negative = inhibition: at the top concentration
On the % scale 0 is the no-effect control and ±100 the full control effect; potency means the concentration at half of the fitted maximal effect; tags describe the fitted curve by direction and shape.

| Compound | activity, negative = inhibition | Potency |
| --- | --- | --- |
| CCOc1ccc(CNCCc2ccc3c(c2)OCO3)cc1 | inactive: -8.55% | – |
| CN1CCN(Cc2nc3ccccc3c(=O)[nH]2)CC1 | inactive: 1.15% | – |
| O=C1CCc2cccc3c2N1CC3 | inactive: -7.75% | – |
| Cc1cccc(-n2c(O)c(/C=C3/C(c4ccccc4)=Nc4ccccc43)c(=O)[nH]c2=O)c1 | – | inconclusive: 20 µM [activator, single point] |
| CC1=CC(=O)OC2CC3OC4C[C@@H](C)C5OC6CC7O[C@]8(C)C/C=C\C9OC%10CC%11OC(CC(C)CO)CC(O)[C@]%11(C)OC%10CC9OC8C[C@]7(C)O[C@]6(C)CCC5OC4C[C@]3(C)OC12 (some centres not stated) | inactive: -0.183% | – |
| COc1ccccc1N1CCN(S(=O)(=O)CCNC(=O)C2CC(=O)N(c3ccccc3)C2)CC1 (configuration not stated) | – | inconclusive: 35.5 µM [inhibitor, single point] |
| Cc1ccc(N)c(N)c1 | – | inconclusive: 2.82 µM [inhibitor, partial curve] |
| Cc1cc(O)c2c(C)c(CC(=O)N3C[C@H]4C[C@@H](C3)c3cccc(=O)n3C4)c(=O)oc2c1 | – | inconclusive: 25.1 µM [inhibitor, single point] |
| CCCCCCC(C)(C)c1ccc([C@@H]2C[C@H](O)CC[C@@H]2CCCO)c(O)c1 | – | inconclusive: 31.6 µM [inhibitor, single point] |
| O=[N+]([O-])c1c(Cl)cccc1-c1c[nH]cc1Cl | – | inconclusive: 12.6 µM [inhibitor, single point] |
| COc1cc2c(cc1O)C[C@H]1NCCc3cc4c(c-2c31)OCO4 | – | inconclusive: 10 µM [inhibitor, partial curve] |
| Cc1ccc(N2C(=O)NC(=O)/C(=C\c3ccc(N4CCOCC4)cc3)C2=O)cc1 | inactive: 2.84% | – |
| O=C(NC1CCCCCC1)c1ccc[nH]c1=S | – | active: 0.794 µM |
| CC(=O)c1cn(Cc2ccccc2C#N)c2ccccc12 | – | active: 3.16 µM |
| CCC(=NCc1cc(OC)cc(OC)c1)c1c(O)n(C)c(=O)n(C)c1=O | – | inconclusive: 35.5 µM [inhibitor, single point] |
| C=C(C)C(=O)OCC1CO1 (configuration not stated) | inactive: -10.5% | – |
| CCCCC(=O)N/N=C/c1c(O)n(-c2cccc3ccccc23)c(=O)[nH]c1=O | inactive: -0.572% | – |
| c1ccc(-c2ccc(C(c3ccccc3)n3ccnc3)cc2)cc1 (configuration not stated) | – | inconclusive: 22.4 µM [inhibitor, single point] |
| c1cncc(C2Nc3cccc4cccc(c34)N2)c1 | – | inactive |
| Oc1c(Cl)c(Cl)cc(Cl)c1Cl | – | inconclusive: 22.4 µM [inhibitor, single point] |
| C[C@@H]1Cc2c(Cl)cc(C(=O)N[C@@H](Cc3ccccc3)C(=O)O)c(O)c2C(=O)O1 | – | active: 22.4 µM |
| CC(Cc1ccccc1)NC(=O)/C=C/c1ccc(Cl)cc1 (configuration not stated) | inactive: 0.412% | – |
| COc1ccc(C(=O)Oc2cccc3cccnc23)cc1S(=O)(=O)N1CCOCC1 | – | active: 4.47 µM |
| CN1C(=O)/C(=C/c2ccc(Cl)s2)C(=O)NC1=S | – | active: 12.6 µM |

| Compound | activity, negative = inhibition | Potency |
| --- | --- | --- |
| CCOC(=O)C/C(C)=N/NC(=O)COc1ccccc1C | – | inconclusive: 35.5 µM [inhibitor, single point] |
| CCC(=Nc1ccc2c(c1)CCC2)c1c(O)n(C2CCCCC2)c(=O)[nH]c1=O | inactive: 16.6% | – |
| CCC1(OC(=O)CN)C(=O)OCc2c1cc1n(c2=O)Cc2cc3ccccc3nc2-1 (configuration not stated) | – | inconclusive: 0.447 µM [inhibitor, full curve] |
| O=C(O)c1ccc(Cl)nc1 | inactive: -4.36% | – |
| Cc1ccc(/C=C2\C(=O)NC(=O)N(CCc3ccc(F)cc3)C2=O)s1 | inactive: 9.51% | – |
| C[C@@H]1O[C@@H](OC2CC(O)C3(CO)C4C(CCC3(O)C2)C2(O)CCC(C3=CC(=O)OC3)C2(C)C[C@H]4O)[C@H](O)[C@H](O)[C@H]1O (some centres not stated) | inactive: -6.84% | – |
| CC[C@@]1(O)C(=O)OCc2c1cc1n(c2=O)-c2cc3ccccc3nc2C1 | – | inconclusive: 158 nM [inhibitor, full curve] and inconclusive: 282 nM [inhibitor, full curve] |
| COc1c(C)cc(C(=O)C2CCCN(Cc3cccc(C)n3)C2)cc1C (configuration not stated) | – | active: 12.6 µM |
| O=Cc1cn(Cc2c(F)cccc2Cl)c2ccccc12 | – | inconclusive: 35.5 µM [inhibitor, single point] |
| CC(NC(C)(C)C)C(=O)c1cccc(Cl)c1 (configuration not stated) | – | inactive |
| N#CC(C#N)=Cc1ccc(-c2ccccc2)o1 | – | inconclusive: 4.47 µM [activator, single point] |
| CN1C(=O)C(=Cc2ccccc2OCc2ccc(Cl)cc2)C(=O)N(C)C1=O | inactive: 3.61% | – |
| C=CC(C)(C)c1c2c(c(O)c3c(=O)c4ccc(O)c(O)c4oc13)C=CC(C)(C)O2 | – | inconclusive: 35.5 µM [inhibitor, single point] |
| Cc1sc2c(c1C)C(c1ccc(C(C)(C)C)cc1)=NCC(=O)N2CC(=O)Nc1nccs1 | – | inconclusive: 35.5 µM [inhibitor, single point] |
| CCCCCc1cc(O)c2c(c1)OC(C)(C)[C@@H]1CCC(C(=O)O)=C[C@H]21 | – | inconclusive: 35.5 µM [inhibitor, single point] |
| C=CCN1C(=O)/C(=C/c2ccc(Br)s2)C(=O)NC1=S | – | inconclusive: 35.5 µM [inhibitor, single point] |
| COc1ccc(C(=O)CC2C(=O)N(C)C(=O)N(C)C2=O)cc1 | – | inconclusive: 31.6 µM [inhibitor, partial curve, poor fit] |
| Cc1cccc(NC(=O)c2cccc(NS(=O)(=O)c3ccc(Cl)cc3)c2)c1 | – | inconclusive: 25.1 µM [inhibitor, single point] |
| CC(C)[C@]12O[C@H]1[C@@H]1O[C@]13[C@]1(O[C@H]1C[C@H]1C4=C(CC[C@@]13C)C(=O)OC4)[C@@H]2O | – | active: 0.398 µM |
| Cc1ncc(CN2CCCC(C(=O)c3cccc(OC(C)C)c3)C2)s1 (configuration not stated) | inactive: 25.7% | – |
| c1ccc(CNCCc2ccc3c(c2)OCO3)nc1 | inactive: 3.71% | – |
| O=C(/C=C/c1c[nH]c2ccccc12)c1c(O)n(CCc2ccccc2)c(=O)[nH]c1=O | inactive: 1.76% | – |
| CC1=CC[C@@H]2[C@@H](C1)c1c(O)cc(CC#CCCCNS(C)(=O)=O)cc1OC2(C)C | – | inconclusive: 25.1 µM [inhibitor, single point] |
